The source gives no read counts; variants with many changes may rest on few reads.
B1: OR4K15 (parent)
chain: GUUAACGGUCAUAGGCCAUGGAAACUAGGAGCACCAUUUCGCUGCCAGUGAAGAAAUGAACAAAGAAAAUCUGGGCCAGGCAGGCAUCAAAAGAAAUAGUCUUGCGCUCAACCAGAAAGUCUGUAAUCAUUUUAAGGGUA

Variants of: B1
Assay: self-cleavage, relative activity (ratio to wild type); higher = more cleavage; in vitro, sequencing; the parent is a self-cleaving ribozyme

Variant | self-cleavage
GUUAACGGUCAUAGGCCAUGGAAACUAGGAGCACCGUUUCGCUACCAGUGAAGAAAUGAACAAAGAAAAUCUGGGCCAGGCAGGCAUCAAAAGAGAUAGUCUUGCGCUCAGCCAGAAAGUCUGUAAUCAUUUUAAGGGUG | 0.01
GUUAACGGUCAUAGGCCAUGGAAACUAGGAGCACCAUUUCGCUGCCAGUGAAGAAAUGAGCAAAGGAAAUCUGGGCCAGGCAGGCAUCAAAAGAAAUAGUCUUGCGCUCAACCGGAAAGUCUGUAAUCAUUUUAAGGGUA | 0.24
GUUAACGGUCAUAGGCCAUGGAAACUAGGAGCACCAUUUCGCUGCCAGUGAAGAAGUGAACAAAGAAAAUCUGGGCCAGGCAGGCAUCAAAAGAGAUAGUCUUGCGCCCAACCAGAAAGUCUGUGAUCAUUUUAAGGGUA | 0.01
GUUAACGGUCAUAGGCCAUGGAAACUAGGAGCACCAUUCCGCCGCCAGUGAAGAAAUGAACAAAGAAAAUCUGGGCCAGGCAGGCAUCAAAGGUAAUAGUCUUGCGCUCAACCAGAAAGUCUGUAAUCAUUUUAAGGGUA | 0.95
GUUAACGGUCAUAGGCCAUGGAAACUAGGAGCACCAUUUCGCUGCCAGUGAAGAAAUGAACAAAGAAGAUCUGGGCCAGGCAGGUAUCAAAAGAAAUAGUCUCGCGCUCAACCAGAAAGUCUGUAAUCAUUUUAAGGGUA | 0.29
GUUAACGGUCAUAGGCCAUGGAAACUAGGAGCACCAUUUCGCUGCCAGUGAAGAAAUGAACAAAGAAAGUCUGGGCCAGGCUGGCAUCAGAAGAAAUAGUCUUGCGCUCGACCAGAAAGUCUGUAAUCAUUUUAAGGGUA | 0.02
GUUAACGGUCAUAGGCCAUGGAAACUAGGAGCACCAUUUCGCUGCCAGUGAAGGAAUGAACAAAGAAAAUCUGGGCCAGGCAGGCAUCAAGAGAAAUAGCCUUGCGCUCAACCAGAAGGUCUGUAAUCAUUUUAAGGGUA | 2.03
GUUAACGGUCAUAGGCCAUGGAAACUAGGAGCAUCAUUUCGCUGCCAGUGAAGAAAUGUACAAAGAAAAUCUGGGGCAGGCAGGCAUCAAAAGAAAUAGUCUUGCGCUCAACCAGAAAGUCUGUAAUCAUUCUAAGGGUA | 0.06
GUUAACGGUCAUAGGCCAUGGAAACUAGGAGCACCAUUUCGCUGCCAGUGAAGAAAUGAACAAAGAAAAUCUGUGCCAGGCGGGCAUCAGAAGAAAUAGUCUUGCGCUCAACCAGAAAGUCUGUAAUCAUUUUAAGGGUA | 0.16
GUUAACGGUCAUAGGCCAUGGAAGCUAGGAGCACCAUUUCGCUGCCUGUGAAGAAAUGAACAAAGAAAAUCCGGGCCAGGCAGGCAUCAAAAGAAAUAGUCUUGCGCUCAACCAGAAAGUCUGUAAUCAUUUUAAGGGUA | 0.24
GUUAACGGUCAUAGGCCAUGGAAACUAGGAGCACCAUUUCGCUGCCAGUGAAGAAAUGAACAAGGAAAAUCUGGGCCAGGCAGGUAUCAAAAGAAAUAGCCUUGCGCUCAACCAGAAAGUCUGUAAUCAUUUUAAGGGUA | 1.57
GUUAACGGUCAUAGGCCAUGGAAACUAGGAGCACCAUUUUGCUGCCGGUGAAGAAAUGAACAAAGAAAAUCUGGGCCAGGCAGGCAUCAAAAGAAAUAGUCCUGCGCUCAACCAGAAAGUCUGUAAUCAUUUUAAGGGUA | 1.82
GUUAACGGUCAUAGGCCAUGGAAACUAGGAGCACCAUUUCGCUGCCAGUGAAGAAAUGAACAAAGAAAAUCAGGGCCAGGCAGGCAUCAAAAGAAAUAGCCUUGCGCUCAACCAGAAAGUCUGUAAUCAUUUUAAGGGAA | 0.73
GUUAACUGUCAUAGGCCAUGGAAACUAGGAGCACCAUUUCGCUGCCAGUGAAGAAAUGAACAAAGGAAAUCUGUGCCAGGCAGGCAUCUGAAGAAAUAGUCUUGCGCUCAACCAGAAAGUCUGUAAUCAUUUUAAGGGUA | 0.11
GCUAACGGUCAUAGGCCAUGGAAACUAGGAGCACCAUUUCGCUGCCAGAGGAGAAAUGAACAAAGAAAAUCUGGGCCUGGCAGGCAUCAAAAGAAAUAGCCUUGCGCUCAACCAGAAAGUCUGUAAUCAUUUUAAGGGUA | 0.94
GUUAACGGUCAUAGGCCAUGGAGACUAGGGGCACCAUUUCGCUGCCAGUGAAGAAAUGAACAAGGAAAAUCUGGGCCAGGCAGGCUUCAAACGAGAUAGUCUUGCGCUCAACCAGAAAGUCUGUAAUCAUUUUAUGGGUA | 1.58
GUUAACGGUCACAGGCCAUGGAAACUAGGAGCACCAUUCCGCUGCCAGUGAAGAAAUGAACAAAGAGAAACUGGGCCUGGCAGGCAUCAAAAGAAAUAGUCUCGCGCUCAACCAGAAAGUCUGUAAUCAUUUUAAGGGUA | 0.29
GUUAACGGUCGUAGGCCAUGGAAACUAGGAGCACCAUUUCGCUGCCAGUGAAGAAACGAACAAAGAAAAUCUGGGCCAGGUAGGCAUCAAAAGAAAUAGUCUUGCGCUCAACCAGAAAGUCUGUAAUCAUUUUAAGGGUA | 0.28
GUUAACGGUCAUAGGCCAUGGAAACUAGGAGCACCAUUUCGCUGCCAGUGAAGAAACGAACAAAGAAAAUCUGGGCCAGGCGGGCAUCAAAAGAAAUAGUCUUGCGCUCAACCAGAAAGUCUGUAGUCAUCUUAAGGGUA | 0.2
GUUAACGGUCAUAGGCCAUGGAAACUAGGAGCACCAUUUCGCAGCCAGUGAAGAAAUGAACAAAGAAAAUCUGGGCCAGGCAGGCAUCAAAAGAAAUAGUCUUGCGCUCAACCAGGGAGUCUGUAAUCAUUUUAAGGGUA | 0.59
GAUAACGGUCAUAGGCCACGGAAACUAGGAGCACCAUUUCGCAGCCAGUGAAGAAAUGAACAAAGAAAAUCUGGGCCAGGCAGGCAUCAAAAGAAAUAGUCUUGCGCUCAACCAGAAAGUCUGUAAUCGUUUUAAGGGUA | 0.21
